From PubChem BioAssay AID1508642 (National Center for Advancing Translational Sciences (NCATS), 2021)
Out of some 43,000 compounds screened, about 200 (0.47%) were called active. About 12% were inconclusive and are not listed. Calls come from the whole dose curve; as a rule, active = well fitted cell-killing curve with a large enough effect; inconclusive = small, poorly fitted or top-dose-only effect, or effect the other way; inactive = flat fitted curve, though single readings scatter. This is one part of the list.

Assay: Cell viability qHTS assay in S16 Pmp22-F2sN cells; note: nearly all actives have a fitted effect of over 65% in size
Settings: S16 Pmp22-F2sN Schwann cells (luciferase reporters placed in the Pmp22 gene) viability, CellTiter-Glo, 24 h; series mostly up to 57.5 µM; activity change, negative = cytotoxicity: at the top concentration
Procedure, shortened: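 Luminescence from CellTiter-Glo, read by CCD camera after a 15 min room-temperature incubation, served as the viability signal. Reporter Schwann cells (S16 Pmp22-F2sN) had been treated with pin-transferred compounds for 24 h at 37C.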
% is set by controls: 0 for no effect and ±100 for the full control effect.

Compound	activity change, negative = cytotoxicity
COc1ccc(N2CCN(C(=O)c3cc4ccc5cccnc5c4[nH]3)CC2)cc1	inactive: 5.64%
O=C(NCC12CC3CC(CC(C3)C1)C2)c1cc2nc(-c3ccccc3)cc(C(F)(F)F)n2n1	inactive: 14.3%
Cc1cccc(Oc2nc3c(c(=O)n(C)c(=O)n3C)n2C)c1	inactive: -17.1%
COc1ccc(OC)c2sc(N3CCN(C(=O)C4CC4)CC3)nc12	inactive: -17.7%
COc1ccc(S(=O)(=O)n2ccnc2)cc1C(C)(C)C	inactive: 10.6%
CCc1ccccc1N1C(=O)N(Cc2ccccc2C)c2ccccc2S1(=O)=O	inactive: -3.79%
COc1ccccc1NC(=O)c1cnc(SCC(=O)N2CCCc3ccccc32)n(C)c1=O	inactive: 4.25%
COc1ccc(OC)c(-n2cnc3cc(C(=O)NC4CCCCCC4)ccc32)c1	inactive: 18.1%
Cc1ccc(NC(=O)Cn2cc3c(n2)CCCCC3)cc1	inactive: -7.46%
CCOC(=O)c1ccccc1NC(=O)c1cc2c(=O)oc3ccc(C)cc3c2s1	inactive: 3.53%
COc1ccccc1CNC(=O)CN1C(=O)CSc2ccc(S(=O)(=O)N3CCCCC3)cc21	inactive: 6.01%
COC(=O)c1c(Oc2ccc(C(C)=O)cc2)nnc(-c2ccccc2)c1-c1ccccc1	inactive: -9.6%
CCN(c1ccccc1)c1ncnc2c1cnn2-c1ccc(C)cc1C	inactive: -0.162%
CCc1ccc(C2CC(=O)Nc3cc4c(cc32)OCO4)cc1 (configuration not stated)	inactive: 1.98%
CCOC(=O)c1noc2nc(C)n(CC(=O)Nc3ccccc3F)c(=O)c12	inactive: -7.5%
O=C(Nc1ccc(Cl)cc1Cl)c1cc(S(=O)(=O)N2CCc3ccccc32)ccc1F	inactive: -3.57%
Cc1oc2ncn(C)c(=O)c2c1C(=O)N1CCN(c2ccccc2)CC1	inactive: 6.55%
O=C(Oc1ccc(F)cc1)c1nc(SCc2ccccc2F)ncc1Cl	inactive: 4.71%
COc1ccccc1C(=O)NC1(C(F)(F)F)C(=O)Nc2c1c(=O)[nH]c(=O)n2-c1ccccc1 (configuration not stated)	inactive: 2.8%
CCn1c(CNC(=O)C23CC4CC(CC(C4)C2)C3)nnc1SCC(=O)Nc1ccccc1	inactive: 3.34%
Cc1ccc(C)c(OCCn2cc(C(=O)c3ccco3)c3ccccc32)c1	inactive: 13.3%
COc1ccc(-c2nc(CNS(=O)(=O)c3ccccc3)cs2)cc1	inactive: -3.55%
CC1CCCN(CCCNC(=O)c2cn(C)c3ccc(S(=O)(=O)N(C)C4CCCCC4)cc3c2=O)C1 (configuration not stated)	inactive: -1.65%
Cc1ccc(NS(=O)(=O)c2ccc3nc(-c4ccccc4)[nH]c3c2)c(Cl)c1	inactive: -13.4%

Compound	activity change, negative = cytotoxicity
Cn1c(=O)c2c([nH]c(=O)n2Cc2ccc(Cl)cc2Cl)n(C)c1=O	inactive: 3.98%
Cc1ccc2c(c1)-c1nc(-c3ccc4c(c3)NC(=O)CO4)cc(-c3ccc(Cl)cc3)c1CO2	inactive: -0.266%
Cc1oc2ncn(CC(C)C)c(=O)c2c1C(=O)Nc1cc(F)ccc1F	inactive: -5.26%
COc1ccccc1CNC(=O)c1ccc2c(c1)N(Cc1cccc(Cl)c1)C(=O)c1ccccc1S2(=O)=O	inactive: 0.927%
Cc1ccc(Cn2c(C(=O)O)c(CNC3CCCCCC3)c3ccc(C)cc32)cc1	inactive: 20%
CC(=O)c1ccc(NC(=O)Cn2c(=O)c3cccn3c3ccccc32)cc1	inactive: -0.112%
COc1ccccc1N1CCN(S(=O)(=O)c2ccc3[nH]c4c(c3c2)CCCC4)CC1	inactive: -15.1%
CCC(=O)N1CCc2cc(Br)cc(S(=O)(=O)CCC(=O)N3CCN(c4ccccc4OC)CC3)c21	inactive: -4.84%
COc1ccc(-c2ccnc3[nH]n(-c4ccccc4)c(=O)c23)cc1	inactive: -0.925%
CCc1ccc(NC(=O)C2CCCN(S(=O)(=O)c3ccc4c(c3)CCCN4C(C)=O)C2)cc1 (configuration not stated)	inactive: -5.21%
COc1ccc(C(=O)N2CC(=O)Nc3ccc(C)cc3C2c2ccccc2)c(OC)c1 (configuration not stated)	inactive: 3.73%
Cc1ccc(-n2ncc(C(=O)N3CCCCC3)c2C2CCN(C(=O)OC(C)(C)C)CC2)cc1C	inactive: 11.6%
CCOc1cc(-c2nnc(SCC(=O)NCc3ccccc3)nc2-c2ccc(OC)c(OCC)c2)ccc1OC	inactive: 7.13%
COc1ccc(/C=C\c2onc(C)c2S(=O)(=O)N2CCC(C(=O)Nc3ccc(Cl)cc3)CC2)cc1	inactive: 13.3%
Cc1ccc(NC(=O)c2ccc3snnc3c2)cc1Cl	inactive: -2.44%
CCc1ccc(S(=O)(=O)c2nnn(-c3ccc(F)cc3)c2N)cc1	inactive: -11.8%
COc1ccc(OCc2ccc(-c3nc(C#N)c(N4CCC(C)CC4)o3)o2)cc1	inactive: -2.5%
CCCNC(=O)C(=O)NCC(c1ccc2c(c1)OCO2)N1CCOCC1 (configuration not stated)	inactive: 10.2%
Cc1ccccc1NC(=O)C1CCC(CNS(=O)(=O)c2ccc3c(c2)C(C)(C)C(=O)N3C)CC1 (configuration not stated)	inactive: -23.8%
Cc1cc(NS(=O)(=O)c2ccc(NC(=O)c3ccccc3F)cc2)nc(C)n1	inactive: 2.29%
CCOc1ccc(CCNC(=O)c2cn(C)c3ccc(S(=O)(=O)N4CCOCC4)cc3c2=O)cc1OCC	inactive: 3.29%
COc1ccc(-c2nc(Cn3c(SCc4cccc(Cl)c4)nc4ccncc43)c(C)o2)cc1	inactive: -15.8%
Cc1ccc(Sc2c(C)nn(C(=O)COc3ccccc3)c2C)cc1	inactive: -14.1%
